# Screen size: about 310,000 compounds; about 2,200 (0.71%) showed an effect of 50% or more. The effect is printed as a negative number. This is one part of the list.
# Biological target: human ether-à-go-go-related gene (hERG) potassium channel (human, UniProt Q12809)
# Experiment: primary screen, population patch clamp on CHO cells stably expressing hERG
# human ether-à-go-go-related gene (hERG) potassium channel, sequence (Q12809 whole entry, looked up): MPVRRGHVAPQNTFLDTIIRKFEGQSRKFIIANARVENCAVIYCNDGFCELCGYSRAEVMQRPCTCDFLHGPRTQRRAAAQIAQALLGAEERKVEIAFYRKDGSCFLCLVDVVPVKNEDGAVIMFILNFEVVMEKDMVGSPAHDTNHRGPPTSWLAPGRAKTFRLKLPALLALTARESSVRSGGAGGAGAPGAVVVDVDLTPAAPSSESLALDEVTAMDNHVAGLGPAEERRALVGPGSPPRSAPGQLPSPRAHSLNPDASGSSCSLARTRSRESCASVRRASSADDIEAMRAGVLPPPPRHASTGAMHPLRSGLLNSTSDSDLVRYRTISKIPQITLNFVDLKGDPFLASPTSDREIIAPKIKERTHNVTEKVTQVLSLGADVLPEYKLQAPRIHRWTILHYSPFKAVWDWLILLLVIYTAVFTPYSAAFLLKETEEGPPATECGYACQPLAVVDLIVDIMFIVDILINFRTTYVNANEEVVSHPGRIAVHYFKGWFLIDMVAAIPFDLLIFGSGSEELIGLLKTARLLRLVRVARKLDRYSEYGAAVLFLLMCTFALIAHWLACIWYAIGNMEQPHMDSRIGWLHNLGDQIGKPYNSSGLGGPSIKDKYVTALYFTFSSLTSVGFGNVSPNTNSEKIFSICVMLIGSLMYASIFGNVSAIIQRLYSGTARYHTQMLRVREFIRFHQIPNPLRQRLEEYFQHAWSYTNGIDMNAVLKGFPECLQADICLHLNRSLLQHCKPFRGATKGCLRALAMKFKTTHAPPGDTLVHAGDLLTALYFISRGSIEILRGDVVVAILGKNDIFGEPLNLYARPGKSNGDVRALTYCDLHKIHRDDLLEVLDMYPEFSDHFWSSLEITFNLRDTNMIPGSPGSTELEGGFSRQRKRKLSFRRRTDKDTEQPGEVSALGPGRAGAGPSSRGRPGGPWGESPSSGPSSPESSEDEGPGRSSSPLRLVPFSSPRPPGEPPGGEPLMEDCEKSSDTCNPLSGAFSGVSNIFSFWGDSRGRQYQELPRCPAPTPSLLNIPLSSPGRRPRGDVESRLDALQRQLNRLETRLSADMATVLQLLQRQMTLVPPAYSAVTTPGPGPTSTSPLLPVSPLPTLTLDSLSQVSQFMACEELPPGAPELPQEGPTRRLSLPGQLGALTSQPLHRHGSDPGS
row,SMILES,"hERG current change (%, negative = inhibition) at 1uM [%]"
1,COc1ccccc1C(CNC(=O)CNC(=O)c1ccc(C)c(C)c1)N1CCCC1 (stereo not shown),10.1
2,CN(C)CCCN(C(=O)c1cc2ccccc2oc1=O)c1nc2ccc(F)cc2s1.Cl,-26.6
3,Cc1ccc(C)c(NC(=O)COC(=O)c2cc3ccccc3oc2=O)c1,-1.92
4,CCOC(=O)N1CCC(N(CCN(C)C)C(=S)Nc2cc(C)ccc2C)CC1,16.7
5,C[C@H](CCC(=O)O)[C@H]1CC[C@H]2[C@@H]3CC[C@@H]4C[C@H](O)CC[C@]4(C)[C@H]3CC[C@]12C,15.8
6,COc1cccc(-c2cc(=O)[nH][nH]2)c1,15.2
7,C#CCOCCOCCOCCNc1nc(N2CCN(C(=O)CCCCCCCCCCNC(=O)Cn3cc(CCCCCN)nn3)CC2)nc(N2CCN(C(=O)CCCCCCCCCCNC(=O)[C@@H](CCC(=O)O)n3cc(CCCCCN)nn3)CC2)n1,10.4
8,O=C(CSc1nc(=O)n(CCCN2CCOCC2)c2c1CCCC2)Nc1ccc(F)c(F)c1,-4.91
9,Cc1cc(OCC(=O)Nc2ccc(S(=O)(=O)N3CCN(C)CC3)cc2)cc(C)c1Cl,0.997
10,Cc1cc(C)n(C(=O)c2cc3ccccc3c(=O)o2)n1,11.7
11,COc1cc(/C=C(/C#N)c2ccc(F)cc2)ccc1OCc1ccc(C(=O)O)o1,11.3
12,Oc1ccc(-c2[nH]nc(-c3ccccc3)c2-c2nc3ccccc3[nH]2)cc1,-15.3
13,COc1ccc(C(C(=O)NC2CCCC2)N(C(=O)c2snc(-c3ccc(F)cc3)c2N)c2cccc(F)c2)cc1 (stereo not shown),15
14,O=C(O)C12CC3CC(C1)CC(n1ncc(NCc4ccccc4)c(Cl)c1=O)(C3)C2,14.6
15,Cc1ccc(S(=O)(=O)c2nnn(-c3cccc(F)c3)c2N)cc1,-0.336
16,C=CCn1c(SCC(=O)NCCOC)nc2scc(-c3ccco3)c2c1=O,-11.7
17,COC(=O)CCn1nnc(-c2ccc(C(C)C)cc2)n1,2.69
18,CCC(C)(C)n1nnnc1C(c1ccccc1OC)N1CCSCC1 (stereo not shown),-5.39
19,COc1ccc(CCNS(=O)(=O)c2ccc(Cl)cc2)cc1OC,7.26
20,CC(=O)Nc1ccc(S(=O)(=O)Nc2ccc3c(c2)CCC3)cc1,17.7
21,Cc1ccc(NC(=O)CCC(=O)NNC(=O)c2ccco2)c(C)c1,4.87
22,O=C(CSc1nnc(-c2ccccc2)n1C1CCCCC1)N1CCCC1,3.37
23,Cc1nc([N+](=O)[O-])cn1CC(=O)c1ccc(F)cc1,12.1
24,CSc1ncc(C(=O)Nc2cc(C)ccc2C)c(C)n1,3.51
25,CCC(CC)C(=O)Nc1nnc(S(=O)(=O)N2CCCCCC2)s1,11.6
26,O=C(CCSc1nc(-c2ccco2)cc(C(F)(F)F)n1)N1CCN(c2ccccn2)CC1,14.4
27,CCc1ccc(C(=O)N/N=C/c2cccc3ccccc23)nc1,4.46
28,O=C(Nc1ccc(CN2CCOCC2)cc1)c1cc(Cl)ccc1Cl,11.6

row,SMILES,"hERG current change (%, negative = inhibition) at 1uM [%]"
1,COc1cccc(C2CC(c3cccs3)=NN2S(C)(=O)=O)c1OC (stereo not shown),12.9
2,O=C(CCc1ccccc1)NNC(=O)COc1ccccc1Cl,13.9
3,Cl.O=C1C2CCN(CC2)C1Cc1ccc(OCCOc2ccccc2)cc1 (stereo not shown),-0.241
4,COC(=O)c1sc(N)c(C(=O)OC)c1COC(=O)C12CC3CC(CC(O)(C3)C1)C2,12.6
5,NC(=O)c1nsc(C(=O)N(CC(=O)NCc2ccco2)c2ccccc2F)c1N,1.03
6,O=C(CCSc1ccccn1)Nc1ccc(Br)cc1,-4.86
7,FC(F)Oc1ccc(NC(=S)NC2CCCCCCC2)cc1,9.62
8,CC1(C)Cc2c(sc3nc4n(c(=N)c23)CCC4)CO1,3.37
9,CCOc1ccc(N2C(=O)/C(=C/c3ccco3)N(C)C2=S)cc1,4.2
10,COc1ccc(-c2cc3ccccc3cn2)cc1,14.1
11,Cc1ccc(C)c(OCC(=O)NCC(C)(C)N2CCOCC2)c1,-7.87
12,COc1ccc(-c2noc(CCC(=O)NCCCN3CCC(C)CC3)n2)cc1,9.03
13,C=CCNC(=O)C1CCN(S(=O)(=O)c2cccs2)CC1,17.5
14,Cc1[nH]nc2c1C(c1ccoc1)C(C#N)=C(N)O2 (stereo not shown),-9.65
15,CC1(CO)COC(c2ccccc2)=N1 (stereo not shown),2.12
16,Cc1ccc(-n2c(C)cc(/C=N/Nc3ccc([N+](=O)[O-])cn3)c2C)c(C)c1,8.37
17,CCN(CC)CC(=O)N1c2ccccc2Oc2c(c(=O)n(C)c(=O)n2C)C1c1cccc([N+](=O)[O-])c1 (stereo not shown),6.53
18,O=C1CC(C(=O)N2CCN(c3ccc(F)cc3)CC2)CN1CCc1ccccc1 (stereo not shown),-2.46
19,Cn1c(=O)c2c(nc(CN3CCc4ccccc4C3)n2Cc2ccccc2)n(C)c1=O,4.2
20,O=c1c2cc(N3CCOCC3)ccc2[nH]c(=S)n1CCCN1CCCC1,-3.39
21,Clc1ccccc1CN1CCN(c2ccccc2)CC1,20.8
22,Cc1cc(C)cc(OCc2nc(-c3cccnc3)no2)c1,5.05
23,Cc1ccc2cc(CN(CC3CCCO3)C(=O)c3cccs3)c(=O)[nH]c2c1 (stereo not shown),0.53
24,Cc1nc(NC(=O)COC(=O)C2=NNC(=O)CC2)c(Cl)cc1Cl,-3.34
25,CCOC(=O)C1NN=C(C(=O)c2ccc(C)cc2)C1c1ccc(C)cc1 (stereo not shown),5.25
26,COc1cccc(CC(NC(C)=O)C(=O)NC2CCN(S(=O)(=O)c3ccc(C)cc3)CC2)c1OC (stereo not shown),15.8
27,Cc1ccc(NS(=O)(=O)c2ccc3[nH]c(=O)[nH]c3c2)c(C)c1,9.9
